Source: PubChem BioAssay AID602310 (National Center for Advancing Translational Sciences (NCATS), 2012)
In all, about 410,000 compounds went through this assay and about 310 (0.076%) were called active. This list was built around the results that the source calls inconclusive (neither active nor inactive); the mix of calls is not that of the screen. Calls follow the shape of the dose curve; as a rule, active = well fitted curve in the direction sought with a large enough effect; inconclusive = small, poorly fitted or top-dose-only effect; inactive = flat fitted curve, though single readings scatter. Where the call is inconclusive, the potency comes from a doubtful curve fit.

molecular target: DNA dC->dU-editing enzyme APOBEC-3G (Homo sapiens) (UniProt Q9HC16); test: qHTS for Inhibitors of Vif-A3G Interactions: qHTS; details: HeLa A3G-eYFP + Vif (tagged APOBEC3G with the HIV-1 protein that degrades it), YFP fluorescence, overnight; series mostly up to 46.1 µM; also: nearly all actives have a fitted effect of over 60% in size
In short: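 HeLa cells stably expressing Vif and C-terminally eYFP-tagged A3G, seeded overnight at 37 deg C, then exposed to compound by pintool overnight at 37 deg C. Rise in yellow fluorescence (Ex 488/Em 500-530, Acumen) marks blocked Vif-driven A3G degradation.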
Potency is read from the fitted curve at half-maximal effect; tags tell the direction and shape of the fitted curve.

Sequence of UniProt Q9HC16 (Q9HC16 whole entry, looked up): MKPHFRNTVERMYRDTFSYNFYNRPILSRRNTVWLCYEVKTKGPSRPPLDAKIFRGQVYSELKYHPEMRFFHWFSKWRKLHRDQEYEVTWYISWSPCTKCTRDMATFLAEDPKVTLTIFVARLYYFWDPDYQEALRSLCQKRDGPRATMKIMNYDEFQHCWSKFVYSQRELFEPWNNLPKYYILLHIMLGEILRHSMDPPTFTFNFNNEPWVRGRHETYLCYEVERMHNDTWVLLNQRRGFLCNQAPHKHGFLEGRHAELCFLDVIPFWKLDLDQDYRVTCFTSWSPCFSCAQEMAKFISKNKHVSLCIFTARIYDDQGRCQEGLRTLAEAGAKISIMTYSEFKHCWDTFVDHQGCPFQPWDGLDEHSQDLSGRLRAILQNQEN

| Compound | Potency |
| --- | --- |
| COc1cc(C(=O)N/N=C/c2ccc(OC(=O)c3ccccc3Cl)c(OC)c2)ccc1O | inconclusive: 35.5 µM [inhibitor, single point] |
| COc1ccccc1CN1C(=O)C(=O)c2cccc(C)c21 | inactive |
| O=C1/C(=C/c2ccco2)SC(=S)N1CCC(=O)N1CCCCC1CCO (configuration not stated) | inactive |
| CC1=CC(C)(C)Nc2ccc(OC(=O)CN3C(=O)CCC3=O)cc21 | inconclusive: 11.2 µM [inhibitor, partial curve, poor fit] |
| COC(=O)CCc1ccccc1S(=O)(=O)N(CCC(=O)OC)Cc1ccccc1 | inconclusive: 11.2 µM [inhibitor, single point] |
| N=c1c(C(=O)NC2CCCC2)cc2c(=O)n3ccccc3nc2n1C1CCCCC1 | inactive |
| CC(=O)N1c2ccccc2N(Cc2ccc(C)cc2C)C(=O)C1(C)C | inconclusive: 1.78 µM [inhibitor, full curve] |
| CC(C)OC(=O)c1ccc(NCc2cc(O)ccc2O)cc1Cl | active: 12.6 µM |
| Cc1ccc(CNc2ncnc3onc(C)c23)cc1 | inactive |
| COc1ccccc1N1CCN(C2CCN(S(=O)(=O)c3ccc4ccccc4c3)CC2)CC1 | inactive |
| Cc1cc2[nH]c(=O)c(=O)[nH]c2cc1S(=O)(=O)Nc1ccccc1F | inactive |
| Brc1ccc2c(c1)NC(c1cccnc1)=NC(c1ccccc1)=N2 | inconclusive: 14.1 µM [inhibitor, single point] |
| CCC(=O)Nc1ccc(/C=C(\C(C)=O)C(=O)c2ccccc2)cc1 | inconclusive: 35.5 µM [inhibitor, single point] |
| O=C(NCc1cccs1)C1CCN(c2ccc(S(=O)(=O)N3CCOCC3)cc2Cl)CC1 | inconclusive: 1.41 µM [inhibitor, full curve, poor fit] |
| O=C(NCc1ccco1)c1nn2c(C(F)(F)F)cc(-c3cccs3)nc2c1Br | inconclusive: 31.6 µM [inhibitor, single point] |
| Cc1cc(C2=NNC(=NC3CC3)SC2)c(C)n1Cc1ccco1 | inconclusive: 3.98 µM [inhibitor, full curve, poor fit] |
| O=C1c2cccc3c(N4CCCCC4)ccc(c23)C(=O)N1c1cccc(O)c1 | inconclusive: 5.62 µM [inhibitor, full curve, poor fit] |
| CCN(CC)CCN1C(=O)C(=O)/C(=C(/O)c2c(C)[nH]c(C(=O)OC)c2C)C1c1ccccc1OC (configuration not stated) | inconclusive: 35.5 µM [inhibitor, partial curve, poor fit] |
| O=C(Cn1cc(C(=S)N2CCOCC2)c2ccccc21)N1CCOCC1 | inactive |
| COc1ccc(CCn2c(Br)nc3c2c(=O)[nH]c(=O)n3C)cc1 | inconclusive: 2.51 µM [inhibitor, full curve, poor fit] |
| O=C(/C(C=Nc1ccc(Br)cc1)=C(/O)c1ccco1)C(F)(F)F | inconclusive: 35.5 µM [inhibitor, single point] |
| CN1C/C(=C/c2cccnc2)C(=O)/C(=C/c2cccnc2)C1 | inconclusive: 7.08 µM [inhibitor, partial curve, poor fit] |
| O=C(N/N=C/c1ccc2c(c1)OCO2)c1ccc2c(c1)OCCO2 | inconclusive: 11.2 µM [inhibitor, partial curve] |

| Compound | Potency |
| --- | --- |
| CCCc1nnc(N2C(=O)c3oc4ccc(F)cc4c(=O)c3C2c2ccc(C(=O)OC)cc2)s1 (configuration not stated) | inactive |
| COc1ccc(C(=O)Nc2ccccc2C(=O)NC(C)C)cc1OC | inactive |
| Cc1c(C(=O)N(C)Cc2nc3ccccc3c(=O)[nH]2)oc2ccccc12 | inconclusive: 7.94 µM [inhibitor, partial curve, poor fit] |
| CCOc1ccc(S(=O)(=O)N(CC(=O)Nc2cccnc2)c2ccccc2)cc1 | inconclusive: 35.5 µM [inhibitor, partial curve, poor fit] |
| COc1cc(/C=C2/CC/C(=C/c3ccc(O)c(OC)c3)C2=O)ccc1O | inconclusive: 12.6 µM [inhibitor, partial curve, poor fit] |
| COc1ccc(-c2ccc3c(=O)cc(-c4ccsc4)oc3c2)cn1 | inconclusive: 22.4 µM [inhibitor, single point] |
| COc1cccc(-c2cnc3c(NC(C)=O)cc(-c4cc(F)ccc4OC)cn23)c1 | inconclusive: 3.16 µM [inhibitor, single point] |
| COc1ccc2nc(C)cc(SCC(NC(C)=O)C(=O)OC(C)C)c2c1 (configuration not stated) | inconclusive: 35.5 µM [inhibitor, single point] |
| C#CCOCCOCCOCCNc1nc(N2CCN(C(=O)CCCCCCCCCCNC(=O)[C@@H]([C@H](C)O)n3cc(C)nn3)CC2)nc(N2CCN(C(=O)CCCCCCCCCCNC(=O)[C@@H]([C@H](C)O)n3cc(C)nn3)CC2)n1 | inconclusive: 20 µM [inhibitor, single point] |
| CCCCCOC(=O)C(C)Sc1n[nH]c(=O)[nH]c1=O (configuration not stated) | inactive |
| C#Cc1cc(N2CCN(C(=O)c3ccoc3)CC2)n2nc(-c3cccc(Cl)c3)cc2n1 | inconclusive: 22.4 µM [inhibitor, single point] |
| O=C(Oc1ccccc1C(=O)Nc1ccccc1)c1ccccc1Br | inconclusive: 5.62 µM [inhibitor, full curve, poor fit] |
| CCC(=O)Nc1cccc(C(=O)/C=C/c2ccc(F)cc2)c1 | inconclusive: 25.1 µM [inhibitor, single point] |
| CCC1CC=CC2C1C(=O)N(Cc1ccccc1)C2c1ccoc1 (configuration not stated) | inconclusive: 7.08 µM [inhibitor, partial curve, poor fit] |
| COc1ccc(OC)c(/C=C/C(=O)c2ccc(Cl)cc2)c1 | inconclusive: 22.4 µM [inhibitor, single point] |
| N#C/C(=C\c1ccccn1)c1ccccn1 | inconclusive: 15.8 µM [inhibitor, single point] |
| CCOC(=O)c1[nH]c2ccc(OC)cc2c1NC(=S)N1CCN(c2cccc(C)c2C)CC1 | inconclusive: 4.47 µM [inhibitor, full curve] |
| O=C1c2ccccc2C(=O)N1CCOc1ccccc1 | inconclusive: 35.5 µM [inhibitor, single point] |
| CCOC(=O)c1cc(-c2ccccc2C)n(CC2CC(c3ccc(OC)cc3)=NO2)n1 (configuration not stated) | inconclusive: 11.2 µM [inhibitor, partial curve, poor fit] |
| Oc1c(C(c2ccccc2F)N2CCOCC2)sc2nc(-c3ccco3)nn12 (configuration not stated) | inactive |
| CC(=O)c1cc(C(=O)c2ccccc2)sc1Nc1ccccc1 | inactive |
| CCS(=O)(=O)Nc1cccc(C2=NN(S(C)(=O)=O)C(c3cccs3)C2)c1 (configuration not stated) | inconclusive: 28.2 µM [inhibitor, single point] |
| O=C(CCCC(=O)NCc1ccc(F)cc1)NCc1ccc(F)cc1 | inactive |

| Compound | Potency |
| --- | --- |
| O=C(Cn1ccc(=O)[nH]c1=O)c1ccc([N+](=O)[O-])o1 | inconclusive: 31.6 µM [inhibitor, single point] |
| CC(=O)NC(C)c1cc(Cl)c2cccnc2c1O (configuration not stated) | inconclusive: 17.8 µM [inhibitor, single point] |
| CCOC(=O)C1CCCN(S(=O)(=O)c2ccc(OC)c3ccccc23)C1 (configuration not stated) | inconclusive: 22.4 µM [inhibitor, single point] |
| CC1(C)Cc2c(sc(NC(=O)c3ccccc3)c2C(=O)O)CO1 | inactive |
| Cc1ccc(-c2nn(-c3cccc(F)c3)cc2CN(Cc2nccn2C)C(C)C)o1 | inactive |
| Cc1ccc(CN2CCN(Cc3cccn3-c3ccccn3)CC2CCO)o1 (configuration not stated) | inactive |
| O=C(Cc1ccc(N2CCNC2=O)cc1)N1CCCC(Nc2cccc(F)c2)C1 (configuration not stated) | inconclusive: 1.78 µM [inhibitor, full curve, poor fit] |
| CCOC(=O)c1nnc(-c2ccccc2)nc1Sc1ccccc1Cl | inconclusive: 17.8 µM [inhibitor, single point] |
| CCCCOc1ccc(Br)cc1CSC(=N)N | inactive |
| O=C(N/N=C/c1ccc(F)cc1)c1cc(-c2ccco2)nc2ccccc12 | inconclusive: 7.94 µM [inhibitor, partial curve, poor fit] |
| Oc1ccc(/C=N/NC(=S)Nc2cccnc2)cc1 | inactive |
| CC1=NN2C(=N)/C(=C\c3ccc(SCc4ccccc4)o3)C(=O)N=C2S1 | inconclusive: 35.5 µM [inhibitor, single point] |
| COc1cc2c(-c3cc(Br)ccc3O)nc3c(c(C)nn3-c3ccccc3)c2cc1OC | inactive |
| COc1ccccc1NC(=O)Nc1ccccc1Br | inactive |
| CC(=O)c1cccc(-c2ccnc3c2CC(C(=O)NCC2CC2)O3)c1 (configuration not stated) | inconclusive: 10 µM [inhibitor, partial curve] |
| CCOC(=O)c1ccc(N=c2sc(C(=O)OC)cc(=O)n2Cc2ccco2)cc1 | inconclusive: 31.6 µM [inhibitor, partial curve, poor fit] |
| Cc1noc2ncnc(Sc3ccc(Cl)cc3)c12 | inactive |
| Cc1ccc(CNC(=O)c2ccc(N(C)S(=O)(=O)c3ccccc3)cc2)cc1 | inactive |
| CCc1ccc(C2CC(=O)c3c([nH]c(C(=O)OCCOc4ccccc4)c3C)C2)cc1 (configuration not stated) | inconclusive: 2.51 µM [inhibitor, full curve, poor fit] |
| O=C(Oc1ccc(Cl)c2cccnc12)c1cccc([N+](=O)[O-])c1 | inconclusive: 31.6 µM [inhibitor, single point] |
| CCN(c1ccc(N=Cc2c(O)n(Cc3ccc(OC)cc3)c(=O)c3ccccc23)cc1)C(C)C | inconclusive: 2.82 µM [inhibitor, partial curve, poor fit] |
